{
  "source": "the supplement of paper PMC4604168 (melanoma cell lines)",
  "note": "The other results are listed elsewhere or left out. Most values come without repeats; read them as rough.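 Further: cell number obtained by counting DAPI-stained nuclei in high-throughput microscope images with image analysis software, screen run in 1,536-well plates.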",
  "data": [
    {"system": "WM451Lu", "test": "cell count relative to DMSO control; melanoma cells; higher = more viable cells", "conditions": "library dose: low library concentration; 72 h; first compound 0.4 µM", "units": {"cell count": "%"}, "values": [
      {"smiles": "Cn1sc(=O)n(Cc2ccccc2)c1=O", "note": "+ CCN(CC)CCCCNc1ncc2cc(-c3cc(OC)cc(OC)c3)c(NC(=O)NC(C)(C)C)nc2n1 [PD173074] (partner dose 0.1 µM)", "cell count": 96.3},
      {"smiles": "C[C@@H](N)c1ccc(C(=O)Nc2ccnc3[nH]ccc23)cc1", "note": "+ C[C@]1(c2nc3c(C(N)=O)cccc3[nH]2)CCCN1 [Veliparib] (partner dose 1.4 µM)", "cell count": 81.6},
      {"smiles": "CCCCCCCCCCCCCCCCCCOP(=O)([O-])OC1CC[N+](C)(C)CC1", "note": "[Perifosine] + CCCCCCCCc1ccc(CCC(N)(CO)CO)cc1 [fingolimod] (partner dose 2 µM)", "cell count": 96.8},
      {"smiles": "C[C@@H](N)c1ccc(C(=O)Nc2ccnc3[nH]ccc23)cc1", "note": "+ CN(c1ncccc1CNc1nc(Nc2ccc3c(c2)CC(=O)N3)ncc1C(F)(F)F)S(C)(=O)=O [PF562271] (partner dose 0.08 µM)", "cell count": 88.8},
      {"smiles": "C[C@@H](N)c1ccc(C(=O)Nc2ccnc3[nH]ccc23)cc1", "note": "+ COc1cc(Nc2ncc(F)c(Nc3ccc4c(n3)NC(=O)C(C)(C)O4)n2)cc(OC)c1OC [Tamatinib] (partner dose 0.4 µM)", "cell count": 66.9},
      {"smiles": "C[C@@H](N)c1ccc(C(=O)Nc2ccnc3[nH]ccc23)cc1", "note": "+ Cc1ccc(NC(=O)c2cccc(N(C)C)c2)cc1NC(=O)c1ccc(O)cc1 [ZM336372] (partner dose 2 µM)", "cell count": 93.9},
      {"smiles": "CCCCCCCCCCCCCCCCCCOP(=O)([O-])OC1CC[N+](C)(C)CC1", "note": "[Perifosine] + Cc1cn(-c2cc(NC(=O)c3ccc(C)c(Nc4nccc(-c5cccnc5)n4)c3)cc(C(F)(F)F)c2)cn1 [nilotinib] (partner dose 0.2 µM)", "cell count": 118},
      {"smiles": "C[C@@H](N)c1ccc(C(=O)Nc2ccnc3[nH]ccc23)cc1", "note": "+ Cn1c(=O)n(-c2ccc(C(C)(C)C#N)cc2)c2c3cc(-c4cnc5ccccc5c4)ccc3ncc21 [NVP-BEZ235] (partner dose 0.004 µM)", "cell count": 90.8},
      {"smiles": "Cn1sc(=O)n(Cc2ccccc2)c1=O", "note": "+ CCCCCCCCc1ccc(CCC(N)(CO)CO)cc1 [fingolimod] (partner dose 2 µM)", "cell count": 103}
    ]}
  ]
}
